Data on 1 molecule can be found in US20040209310A1 (published 2004).

The experiment addresses T1, myc-tagged full-length F-spondin (human, UniProt Q9HCB6 29-807).
T1 construct: It is used here because this construct is also full-length F-spondin from the same clone (ATCC 2190694); also called secreted myc-tagged recombinant F-spondin; pcDNA4-His/myc-F spondin; not shown: His/myc tag of vector pcDNA4-His/myc B
T1 sequence: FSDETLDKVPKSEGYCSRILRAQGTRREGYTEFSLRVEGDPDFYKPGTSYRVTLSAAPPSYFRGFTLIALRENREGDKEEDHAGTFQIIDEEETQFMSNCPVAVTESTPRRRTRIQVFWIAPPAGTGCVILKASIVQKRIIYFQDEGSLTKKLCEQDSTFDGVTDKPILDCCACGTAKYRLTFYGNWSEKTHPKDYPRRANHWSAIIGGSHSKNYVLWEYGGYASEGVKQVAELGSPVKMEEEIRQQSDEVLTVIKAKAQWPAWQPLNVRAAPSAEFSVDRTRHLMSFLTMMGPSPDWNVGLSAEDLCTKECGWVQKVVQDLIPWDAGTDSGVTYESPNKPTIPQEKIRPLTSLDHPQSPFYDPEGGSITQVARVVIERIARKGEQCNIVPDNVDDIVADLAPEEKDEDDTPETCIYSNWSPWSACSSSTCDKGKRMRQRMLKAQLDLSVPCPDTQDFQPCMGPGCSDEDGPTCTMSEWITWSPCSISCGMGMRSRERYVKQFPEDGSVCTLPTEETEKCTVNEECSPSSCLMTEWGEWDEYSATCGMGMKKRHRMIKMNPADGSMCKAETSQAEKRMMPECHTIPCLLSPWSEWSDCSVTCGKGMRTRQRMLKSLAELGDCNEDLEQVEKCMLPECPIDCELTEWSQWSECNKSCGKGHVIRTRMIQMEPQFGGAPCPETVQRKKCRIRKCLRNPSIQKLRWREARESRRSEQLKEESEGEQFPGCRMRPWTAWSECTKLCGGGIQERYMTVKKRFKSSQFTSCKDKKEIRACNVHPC
Kind of experiment: pulldown of secreted myc-F-spondin on Ig-APP.2 immobilized on protein A-Sepharose, immunoblot. The method, then: These studies were performed essentially as described (Ichtchenko et al., 1995, Cell 81:435-443; Hata et al., Nature 366:347-351). Brain membrane extract was precleared by incubation (2 h at 4° C.) with glutathione agarose and incubated overnight at 4° C. with immobilized GST-CAPPD on glutathione agarose beads preequilibrated with buffer B. Beads were washed with buffer B and serially eluted with 2 ml of buffer B containing 0.3 M NaCl, 0.5 M NaCl, 1.0 M NaCl, or 1.0 M NaCl, 10 mM EGTA, and 5 mM EDTA (instead of 2 mM CaCl2). Eluted proteins were analyzed by SDS-PAGE and Coomassie blue staining. Bound proteins were identified by liquid chromatography/mass spectroscopy of tryptic fragments. For pulldown assays, the medium from COS cells transfected with pcDNA4-His/myc-F spondin or pcDNA-His/myc-Mindin (collected 48-72 h post transfection) was adjusted to (final concentrations) 10 mM HEPES-NaOH pH 7.4, 1 mM EGTA, 1% Triton X-100, proteinase inhibitors were added, and the supernatant was precleared with immobilized GST orIg-C. The treated medium was then incubated overnight at 4° C. with GST or GST-CAPPD immobilized on glutathione agarose or with various Ig-APP fusion proteins immobilized on protein-A Sepharose. Glutathione agarose or Protein A beads were washed 4-5× with buffer B, and examined by SDS-PAGE and immunoblotting. […]

B1: Ig-APP.2 (pCMVIg-APP.2, APP695 […] fused to the Fc-region of human immunoglobulin) (Fc fusion)
chain: LEVPTDGNAGLLAEPQIAMFCGRLNMHMNV[sequence of about 40 residues not given]ANQPVTIQNWCKRGRKQCKTHPHFVIPYRCLVGEFVSDALLVPDKCKFLHQERMDVCETHLHWHTVAKETCSEKSTNLHDYGMLLPCGIDKFRGVEFVCCPLAEESDNVDSADAEEDD
notes: range […]; also called Ig-fusion protein that includes only the N-terminal domains of APP; CRD alone; not shown: Fc region of human immunoglobulin from vector pCMV-Ig9
As to B1, the binding result is “no binding”.
